The campaign covered roughly 390,000 compounds. About 930 (0.24%) were called active. The inconclusive results got no clear call from the source; some entries with a clear call stand among them for comparison. Calls follow the shape of the dose curve; as a rule, active = well fitted activation curve with a large enough effect; inconclusive = small, poorly fitted or top-dose-only effect; inactive = no such curve, though single readings can be large or run the other way. Potencies beside an inconclusive call are fits to weak or partial responses and may not hold up.
Assay: qHTS for Suppressors of FUS Proteinopathy: Primary screen using FUS-linked yeast assay; also: nearly all actives have a fitted effect of over 55% in size;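 as to growth rescue (activation): plate controls were DMSO vehicle for no effect and reference control for full effect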
Conditions: S. cerevisiae FUS-expressing, OD600, 24 h; Potency: growth rescue; growth rescue (activation): at 76.6 µM (top of the series)
Procedure, shortened: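 FUS-expressing yeast, raffinose-pregrown, induced in 2% galactose minimal medium at OD 0.005; compounds in a dilution series, 24hr at 30C. Growth restoration read as absorbance at 600 nm. CP55940 positive control, DMSO negative.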
Potency is read from the fitted curve at half-maximal effect; tags tell the direction and shape of the fitted curve.

Structure (SMILES) | Potency | growth rescue (activation)
CC(C)(C)OC(=O)CC[C@@H](C(=O)NCCCCCCCCCCC(=O)N1CCN(C(=O)OC(C)(C)C)CC1)n1cc(CCCCCNC(=O)OC(C)(C)C)nn1 | inconclusive: 10 µM [activator, full curve, poor fit] | 
COc1ccc(NCc2nnc(SCC(=O)c3ccc(OC)cc3)o2)cc1 | inconclusive: 39.8 µM [activator, partial curve, poor fit] | 
CCOC(=O)C1=C(Cc2ccc(OC)cc2)C(=O)c2ccccc2C1=O |  | inactive: 6.43%
Oc1ccc(C[C@H]2CNC(=S)N2C[C@H]2CCCN2C[C@H](Cc2ccccc2)N2C[C@H](Cc3ccccc3)N(CC3CCCCC3)C2=S)cc1 | inconclusive: 50.1 µM [activator, single point] | 
COc1ccc(S(=O)(=O)Nc2cccc3c2O[C@H](CN(C)Cc2ccc(-c4ccccc4)cc2)[C@@H](C)CN([C@H](C)CO)C3=O)cc1 | active: 25.1 µM | 
COC(=O)[C@@]12C[C@@H](CC(=O)NCc3cccs3)C(=O)N(Cc3ccc4c(c3)OCO4)C1=CCC(C)(C)C2 | inconclusive: 22.4 µM [activator, single point] | 
C[C@@H]1CN([C@@H](C)CO)C(=O)c2cccc(NC(=O)Nc3cccc4ccccc34)c2O[C@H]1CN(C)S(=O)(=O)c1ccccc1F | inconclusive: 20 µM [activator, single point] | 
Cc1ccc(S(=O)(=O)NCC(=O)OCC(=O)c2ccc(S(=O)(=O)N3CCCCC3)cc2)cc1C | inconclusive: 22.4 µM [activator, partial curve, poor fit] | 
Nc1ccn(Cc2cccc(Cl)c2)n1 | inconclusive: 3.98 µM [activator, partial curve, poor fit] | 
CCc1nc2ccc(C(=O)Nc3cc(-c4ccccc4)ccc3OC)cn2c1N(C)CCC(C)C | inconclusive: 31.6 µM [activator, single point] | 
Cc1cc(C2=NNC(=NC3CC3)SC2)c(C)n1-c1ccccc1F | inconclusive: 44.7 µM [activator, single point] | 
CCCC1(C(=O)OCC)NC(c2ccc(N(C)C)cc2)C2C(=O)N(c3ccc4c(c3)OCCO4)C(=O)C21 (configuration not stated) | inconclusive: 17.8 µM [activator, single point] | 
CC1Cc2ccccc2N1C(=O)CSc1ccccc1 (configuration not stated) |  | inactive: 24%
O=C(Cn1nnc(-c2ccc(N3CCOCC3)cc2)n1)N1CCOCC1 |  | inactive: -20.3%
COc1ccccc1NS(=O)(=O)c1cc(-c2cnc(C3CC3)o2)ccc1C | inconclusive: 31.6 µM [activator, single point] | 
CCOC(=O)N1CCC(NC(=O)c2ccc3c(c2)N(Cc2ccc(F)cc2)C(=O)c2ccccc2S3(=O)=O)CC1 | active: 25.1 µM | 
C=CCC[C@H](Cc1ccc(F)cc1)C(=O)OC[C@@H](Cc1c[nH]c2ccccc12)NC(=O)[C@@H](CC=C)CC(=O)N[C@H](CO)Cc1ccccc1 | inconclusive: 12.6 µM [activator, partial curve] | 
CCOc1cc(C2c3c(-c4ccc(Br)cc4)n[nH]c3C(=O)N2c2ccc(Cl)cc2)ccc1O (configuration not stated) | inconclusive: 35.5 µM [activator, single point] | 
Cc1ccccc1NC(=S)/C(=C(\[O-])c1cc(C)n(Cc2ccccc2Cl)c1C)[n+]1ccccc1 | inconclusive: 35.5 µM [activator, partial curve, poor fit] | 

Structure (SMILES) | Potency | growth rescue (activation)
Cc1ccc(NS(=O)(=O)c2ccc(N3CCN(c4ccc(O)cc4)CC3)c([N+](=O)[O-])c2)c(C)c1 | inconclusive: 39.8 µM [activator, partial curve, poor fit] | 
O=C(Nc1nccs1)c1ccc(-c2cccc([N+](=O)[O-])c2)o1 |  | inactive: 12%
CC(C)(C)NC(=O)C[C@H]1C[C@H](C(=O)N2CCCCC2)[C@@]2(C)c3[nH]c4cc(-c5ccco5)ccc4c3CCN2C1=O | inconclusive: 31.6 µM [activator, single point] | 
O=C(NCc1n[nH]c(=S)n1-c1ccc(Br)cc1)c1ccc(S(=O)(=O)N2CCCCC2)cc1 | inconclusive: 31.6 µM [activator, partial curve, poor fit] | 
COC(=O)c1c(C)[nH]c(C(=O)OCC(=O)c2c(N)n(CC(C)C)c(=O)n(C)c2=O)c1C | inconclusive: 31.6 µM [activator, partial curve, poor fit] | 
Cc1cc(C(=O)CSc2nn3c(=O)c(C(C)(C)C)nnc3s2)c(C)n1-c1ccc(F)cc1 | inconclusive: 50.1 µM [activator, single point] | 
Cc1cc(C)cc(OC(C)C(=O)Nc2nonc2-c2ccc(Br)cc2)c1 (configuration not stated) |  | inactive: 31.4%
COc1ccc(C(O)c2nc(-c3cccc(F)c3)cs2)cc1 (configuration not stated) |  | inactive: -0.0799%
O=C(NC1CCCC1)C(C1CC1)n1c(-c2cc3ccccc3[nH]2)nc2ccccc21 (configuration not stated) | inconclusive: 25.1 µM [activator, partial curve, poor fit] | 
CN(c1ccc(O)cc1)c1nc(-c2cccs2)cs1 | inconclusive: 7.94 µM [activator, partial curve] | 
Cc1cccc(S(=O)(=O)C(C#N)c2nc3ccccc3nc2N2CCCC2)c1 (configuration not stated) | inconclusive: 39.8 µM [activator, single point] | 
CCCC1=Nc2cc(C(=O)NCCCN3CCOCC3)ccc2Sc2ccccc21 | inconclusive: 22.4 µM [activator, partial curve, poor fit] | 
CCC(CC)N1CCN(C(=O)c2cc(OC)c(OC)c(OC)c2)CC1 |  | inactive: -8.15%
Cc1cc(C)c(C#N)c(Sc2nc(C)c([N+](=O)[O-])c(C)c2C#N)n1 |  | inactive: -2.7%
CC(C)Cc1ccc(S(=O)(=O)N2CCN(c3ccccn3)CC2)cc1 |  | inactive: 25.1%
CCc1ccc(CNC(=O)CCC(=O)N2Cc3cccc(OC)c3Oc3ncccc32)cc1 | inconclusive: 22.4 µM [activator, partial curve] | 
O=C(c1ccccc1[N+](=O)[O-])N1N=C(c2ccccc2)CC1(O)C(F)(F)F (configuration not stated) | inconclusive: 3.55 µM [activator, full curve] | 
Cc1nnc(SCc2ccccc2)c2cc3sccc3n12 | inconclusive: 35.5 µM [activator, single point] | 

Source: PubChem BioAssay AID1347120 (National Center for Advancing Translational Sciences (NCATS), 2019)
